The other results are listed elsewhere or left out. Further columns of the screen follow, without active or inactive calls.
What was measured:
Assay in all cases: Primary Screen for Target Class Profiling of Small Molecule Inhibitors of Methyltransferases
[1] = molecular target: Glycine N-methyltransferase (Homo sapiens) (UniProt Q14749); details: purified enzyme, MTase-Glo SAH luminescence; measured here: GNMT inhibition; at 40 µM; stronger effect = lower value
Method in brief: (§1)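 Each enzyme was reacted with SAM and its substrate, with compounds tested once at 40 uM; SAH formed was read by MTase-Glo luminescence.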

[2] = molecular target: Guanidinoacetate N-methyltransferase (Homo sapiens) (UniProt Q14353); details: purified enzyme, MTase-Glo SAH luminescence; measured here: GAMT inhibition; at 40 µM; stronger effect = lower value
Method in brief: as §1

[3] = molecular target: Histamine N-methyltransferase (Homo sapiens) (UniProt P50135); details: purified enzyme, MTase-Glo SAH luminescence; measured here: HNMT inhibition; at 40 µM; stronger effect = lower value
Method in brief: as §1

[4] = molecular target: Nicotinamide N-methyltransferase (Homo sapiens) (UniProt P40261); details: purified enzyme, MTase-Glo SAH luminescence; measured here: NNMT inhibition; at 40 µM; stronger effect = lower value
Method in brief: as §1

[5] = molecular target: Phenylethanolamine N-methyltransferase (Homo sapiens) (UniProt P11086); details: purified enzyme, MTase-Glo SAH luminescence; measured here: PNMT inhibition; at 40 µM; stronger effect = lower value
Method in brief: as §1
% is set by controls: 0 for no effect and ±100 for the full control effect.

Work on `Cc1cnc(C(=O)N2CC[C@H](CO)[C@H](NC(=O)C3CC3)C2)cn1` yielded an activity change, negative = inhibition [1] of 1.03%, an activity change, negative = inhibition [2] of 2.67% and an activity change, negative = inhibition [3] of 0.08%. It also gave an activity change, negative = inhibition [4] of -5.78% and an activity change, negative = inhibition [5] of 15.5%.
`Cc1ccc(Cn2c(=O)c3ccccc3n3c(=O)n(CC(=O)Nc4cc(Cl)ccc4C)nc23)cc1` gave an activity change, negative = inhibition [1] of 4.3%, an activity change, negative = inhibition [2] of 5.49% and an activity change, negative = inhibition [3] of 3.02%. It also gave an activity change, negative = inhibition [4] of 4.48% and an activity change, negative = inhibition [5] of 3.93%.
With `O=C(NCc1ccc(OC(F)(F)F)cc1)c1cc(CN2CCOCC2)on1` the activity change, negative = inhibition [1] was -1%, the activity change, negative = inhibition [2] was -0.278% and the activity change, negative = inhibition [3] was 0.387%. The activity change, negative = inhibition [4] was -8.64% and the activity change, negative = inhibition [5] was -2.02%.
Work on `CC(=O)N1CCN(C(=O)C[C@@H]2C[C@@H](C(C)C)[C@H](CNC(=O)c3cncnc3)C=C2C)CC1` yielded an activity change, negative = inhibition [1] of -5.99%, an activity change, negative = inhibition [2] of -5.49% and an activity change, negative = inhibition [3] of -2.97%. For the same compound, the activity change, negative = inhibition [4] was -8.42% and the activity change, negative = inhibition [5] was -2.46%.
In the case of `CC(C)C1c2cccn2CCN1C(=O)Nc1cccc(F)c1` (stereo not given), the activity change, negative = inhibition [1] was 12.4%, the activity change, negative = inhibition [2] was 1.63% and the activity change, negative = inhibition [3] was 2.19%. It also gave an activity change, negative = inhibition [4] of -1.87% and an activity change, negative = inhibition [5] of 7.59%.
For `c1cncc(-c2ccnc(NCC(c3cccnc3)N3CCCCC3)n2)c1` (stereo not given), the activity change, negative = inhibition [1] was -9.59%, the activity change, negative = inhibition [2] was -4.2% and the activity change, negative = inhibition [3] was -1.63%. It also gave an activity change, negative = inhibition [4] of -7.15% and an activity change, negative = inhibition [5] of 0.373%.
With `CCCCN1C(=O)c2cc(C(=O)NCc3ccc(CC)cc3)nn2CC1(C)C(=O)NC1CCCC1` (stereo not given) the activity change, negative = inhibition [1] was -0.073%, the activity change, negative = inhibition [2] was -0.591% and the activity change, negative = inhibition [3] was 0.091%. The activity change, negative = inhibition [4] was -5.16% and the activity change, negative = inhibition [5] was -3.58%.
With `CC(C)CCNC(=O)CCc1nnc2n(CCc3ccccc3)c(=O)c3ccccc3n12` the activity change, negative = inhibition [1] was -6%, the activity change, negative = inhibition [2] was 3.58% and the activity change, negative = inhibition [3] was 4.2%. It also gave an activity change, negative = inhibition [4] of 5.67% and an activity change, negative = inhibition [5] of -4.08%.
`Cc1oc2c(c1C(=O)N1CCN(C3CCCC3)CC1)CN(Cc1cccc(F)c1)CC2` showed an activity change, negative = inhibition [1] of -6.45%, an activity change, negative = inhibition [2] of -5.97% and an activity change, negative = inhibition [3] of -8.43%. The activity change, negative = inhibition [4] was -13.6% and the activity change, negative = inhibition [5] was -19.8%.
Compound `C[C@]12CCC[C@](C)(C(=O)O)C1CCC13C=C(CO)C(CCC12)C3` (stereo not given in full) has an activity change, negative = inhibition [1] of 0%, an activity change, negative = inhibition [2] of 1.81% and an activity change, negative = inhibition [3] of 5.02%. For the same compound, the activity change, negative = inhibition [4] was -11% and the activity change, negative = inhibition [5] was 4.59%.
In the case of `CS(=O)(=O)N1CC2(CCN(C3COC3)C2)Cc2ccccc21` (stereo not given), the activity change, negative = inhibition [1] was -9.51%, the activity change, negative = inhibition [2] was -3.31% and the activity change, negative = inhibition [3] was -3.12%. It also gave an activity change, negative = inhibition [4] of -4.87% and an activity change, negative = inhibition [5] of -1.38%.
`COc1c(C)c(OCC(O)C(C)(C)O)cc2c1CNC2=O` (stereo not given) gave an activity change, negative = inhibition [1] of -2.7%, an activity change, negative = inhibition [2] of -13.4% and an activity change, negative = inhibition [3] of 4.17%. The activity change, negative = inhibition [4] was -24.9% and the activity change, negative = inhibition [5] was -4.12%.
Compound `CC1(C)CC[C@]2(C(=O)O)CC[C@]3(C)C(=CCC4[C@@]5(C)C[C@H](O)[C@H](O[C@@H]6OC[C@H](O)[C@H](O)[C@H]6O)[C@@](C)(CO)C5CC[C@]43C)[C@@H]2C1` (stereo not given in full) has an activity change, negative = inhibition [1] of 0%, an activity change, negative = inhibition [2] of 1.96% and an activity change, negative = inhibition [3] of 0.825%. It also gave an activity change, negative = inhibition [4] of -9.83% and an activity change, negative = inhibition [5] of 7.3%.
`Cc1ccc(-c2cn3c(n2)N(C(=O)C2CCCO2)CCC3)cc1` (stereo not given) gave an activity change, negative = inhibition [1] of -1.34%, an activity change, negative = inhibition [2] of -0.619% and an activity change, negative = inhibition [3] of -9.67%. The activity change, negative = inhibition [4] was -10.1% and the activity change, negative = inhibition [5] was 10.5%.
Work on `CC1(C(=O)NC2CCCCCCC2)Cc2ccccc2C(=O)N1Cc1ccco1` (stereo not given) yielded an activity change, negative = inhibition [1] of -4.47%, an activity change, negative = inhibition [2] of 0% and an activity change, negative = inhibition [3] of 12.8%. For the same compound, the activity change, negative = inhibition [4] was 0.761% and the activity change, negative = inhibition [5] was 4.27%.
`COc1ccc2c3ccnc4ccc(=O)n(c2c1)c43` showed an activity change, negative = inhibition [1] of -38.6%, an activity change, negative = inhibition [2] of -8.66% and an activity change, negative = inhibition [3] of -1.35%. For the same compound, the activity change, negative = inhibition [4] was -24.7% and the activity change, negative = inhibition [5] was -5.23%.
Work on `COc1ccccc1NC(=O)N1CCn2cccc2C1C` (stereo not given) yielded an activity change, negative = inhibition [1] of -5.5%, an activity change, negative = inhibition [2] of 3.94% and an activity change, negative = inhibition [3] of -7.01%. It also gave an activity change, negative = inhibition [4] of -12.9% and an activity change, negative = inhibition [5] of -4.29%.
`CC1=C(C(=O)O)/C(=C\CO[C@@H]2O[C@H](CO)[C@@H](O)[C@H](O)[C@H]2O)C(OC(=O)/C=C/c2ccc(O)cc2)C1` (stereo not given in full) gave an activity change, negative = inhibition [1] of -4.4%, an activity change, negative = inhibition [2] of -6.39% and an activity change, negative = inhibition [3] of -1.09%. It also gave an activity change, negative = inhibition [4] of -15.7% and an activity change, negative = inhibition [5] of 1.86%.
`CN1CCN(CCCNC(=O)Cn2ccc3cc(S(=O)(=O)N4CCCCC4)ccc32)CC1` was tested, and the activity change, negative = inhibition [1] was 2.9%, the activity change, negative = inhibition [2] was 0% and the activity change, negative = inhibition [3] was -11.8%. For the same compound, the activity change, negative = inhibition [4] was 2.25% and the activity change, negative = inhibition [5] was -0.742%.
For `COc1cc(/C=C/C(=O)OC[C@H]2O[C@H](O[C@]3(CO)O[C@H](CO)[C@@H](O)[C@@H]3O)[C@H](O)[C@@H](O)[C@@H]2O)cc(OC)c1O`, the activity change, negative = inhibition [1] was -2.59%, the activity change, negative = inhibition [2] was -2.65% and the activity change, negative = inhibition [3] was 2.93%. For the same compound, the activity change, negative = inhibition [4] was -13.2% and the activity change, negative = inhibition [5] was -9.75%.
`CC1(C)C(=O)C(C)(C)c2cc(C(=O)Nc3ccc(C(=O)O)cc3)ccc21` showed an activity change, negative = inhibition [1] of -4.2%, an activity change, negative = inhibition [2] of 4.9% and an activity change, negative = inhibition [3] of 13.9%. It also gave an activity change, negative = inhibition [4] of -9.71% and an activity change, negative = inhibition [5] of 5.29%.
Compound `Cn1c(=O)n(C)c2cc(S(=O)(=O)Nc3ccc(N4CCOCC4)cc3)c(Cl)cc21` has an activity change, negative = inhibition [1] of -1.84%, an activity change, negative = inhibition [2] of 0% and an activity change, negative = inhibition [3] of -11%. For the same compound, the activity change, negative = inhibition [4] was -3.57% and the activity change, negative = inhibition [5] was -9.81%.
For `CCn1c(-c2nonc2N)nc2c(C#CC(C)(C)O)ncc(OCC3CCCNC3)c21` (stereo not given), the activity change, negative = inhibition [1] was -1.34%, the activity change, negative = inhibition [2] was 14.9% and the activity change, negative = inhibition [3] was -36.1%. For the same compound, the activity change, negative = inhibition [4] was -66.5% and the activity change, negative = inhibition [5] was 5.42%.
Compound `CCOCCCN1C(=O)c2cc(-c3ccc(OC)c(OC)c3)nn2CC1(C)C(=O)NC1CCCCC1` (stereo not given) has an activity change, negative = inhibition [1] of 0.937%, an activity change, negative = inhibition [2] of 4.65% and an activity change, negative = inhibition [3] of 8.36%. For the same compound, the activity change, negative = inhibition [4] was 1.2% and the activity change, negative = inhibition [5] was 0.352%.
`C=C(C(=O)O)C1CCC2(C)CCC(O)C(C)(O)C2C1` (stereo not given) gave an activity change, negative = inhibition [1] of -1.72%, an activity change, negative = inhibition [2] of -3.11% and an activity change, negative = inhibition [3] of 3.8%. The activity change, negative = inhibition [4] was -14.8% and the activity change, negative = inhibition [5] was -11.9%.
Compound `CO[C@@H]1[C@]2(O)C(=O)N3/C=C\C(C)(C)c4[nH]c5ccccc5c4/C=C\3C(=O)N2[C@]23[C@H](CO)C(C)(C)N2c2ccccc2[C@]13O` has an activity change, negative = inhibition [1] of -1.28%, an activity change, negative = inhibition [2] of 5.86% and an activity change, negative = inhibition [3] of 5.62%. For the same compound, the activity change, negative = inhibition [4] was -7.97% and the activity change, negative = inhibition [5] was -1.61%.
With `COC1CCC12CCN(Cc1ccc(C)o1)CC2` (stereo not given) the activity change, negative = inhibition [1] was -5.26%, the activity change, negative = inhibition [2] was -5.15% and the activity change, negative = inhibition [3] was -3.31%. It also gave an activity change, negative = inhibition [4] of -4.32% and an activity change, negative = inhibition [5] of -4.67%.
In the case of `CC1(O)CCC2C(C(=O)O)=COC(OC3OC(CO)C(O)C(O)C3OC(=O)/C=C/c3ccc(O)cc3)C21` (stereo not given), the activity change, negative = inhibition [1] was 3.34%, the activity change, negative = inhibition [2] was -0.639% and the activity change, negative = inhibition [3] was 8.14%. It also gave an activity change, negative = inhibition [4] of -8.95% and an activity change, negative = inhibition [5] of 0.193%.
